Out of some 39,000 compounds screened, about 220 (0.56%) showed activity. The list shows a part of the results.
test system: Escherichia coli K-12 BW25113; assay: relative growth (OD600 normalised to plate interquartile mean) (fraction); higher = less growth inhibition, active = 0.2 or less; conditions: 50 µM; LB; incubation time: overnight (16-24 h)
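Also: static incubation at 37 °C against the wild-type strain, values averaged over two biological replicates.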

SMILES | relative growth
Cc1cccc(N(CC(=O)O)CC(=O)O)c1 | inactive: 1.04
COCC#Cc1cnc2c(c1)C(=O)N([C@H](C)CO)C[C@@H](C)[C@@H](CN(C)S(=O)(=O)c1cn(C)cn1)O2 | inactive: 0.997
C[C@@H]1CN([C@H](C)CO)C(=O)Cc2cc(NS(=O)(=O)c3cn(C)cn3)ccc2O[C@@H]1CN(C)S(=O)(=O)c1cccs1 | inactive: 0.975
CC(C)N1CC[C@H](CN(C)Cc2ccc(Oc3ccccc3)cc2)Oc2c(NC(=O)c3ccncc3)cccc2C1=O | inactive: 1.01
C[C@H](CO)N1C[C@H](C)[C@H](CN(C)Cc2ccc(C(=O)O)cc2)Oc2ccc(NC(=O)c3ccncc3)cc2C1=O | inactive: 0.994
C[C@@H]1CN([C@H](C)CO)C(=O)c2cc(NC(=O)CCC(F)(F)F)ccc2O[C@@H](C)CCCCO[C@H]1CN(C)C(=O)c1ccccc1 | inactive: 0.99
C[C@H](CO)N1C[C@H](C)[C@@H](CN(C)S(C)(=O)=O)Oc2ccc(NC(=O)CCC(F)(F)F)cc2C1=O | inactive: 1.02
COCCCNC(=O)[C@@]1(Sc2ccc(C)cc2)CC(=O)N(Cc2ccccc2Cl)[C@@H]1c1ccc(CO)cc1I | inactive: 0.925
C[C@H]1CN([C@@H](C)CO)C(=O)c2cc(NC(=O)Cn3cnnn3)ccc2O[C@@H]1CN(C)S(C)(=O)=O | inactive: 0.996
C[C@@H]1CCCCO[C@H](CN(C)CC2CCCCC2)[C@H](C)CN([C@@H](C)CO)C(=O)c2cc(NC(=O)c3ccccc3)ccc2O1 | inactive: 0.971
C[C@H](CO)N1C[C@H](C)[C@@H](CN(C)C(=O)Nc2ccc(C(F)(F)F)cc2)Oc2c(NS(C)(=O)=O)cccc2C1=O | inactive: 0.974
Cc1ccc(S(=O)(=O)Nc2ccc3c(c2)C(=O)N([C@@H](C)CO)C[C@H](C)[C@H](CN(C)S(=O)(=O)c2ccc(C)cc2)OCCCC[C@H](C)O3)cc1 | inactive: 1.05
C[C@@H]1CCCCO[C@H](CN(C)Cc2ccc(C(F)(F)F)cc2)[C@H](C)CN([C@H](C)CO)C(=O)c2cc(N(C)C)ccc2O1 | inactive: 1
CCN1C(=O)CO[C@H]2CN(C(=O)C3CCOCC3)C[C@@H]21 | inactive: 0.979
C[C@@H]1CN([C@@H](C)CO)C(=O)Cc2cc(NC(=O)c3ccncc3)ccc2O[C@H]1CN(C)S(=O)(=O)c1ccc(F)cc1 | inactive: 0.983
C[C@@H]1CCCCO[C@H](CN(C)C(=O)NC2CCCCC2)[C@H](C)CN([C@@H](C)CO)C(=O)c2cc(NC(=O)Nc3ccc(C(F)(F)F)cc3)ccc2O1 | inactive: 1.02
C[C@H](CO)N1C[C@H](C)[C@@H](CN(C)S(=O)(=O)c2cccc(F)c2)Oc2ncc(C#CC3CCCC3)cc2C1=O | inactive: 1.02
C[C@@H]1CN([C@@H](C)CO)C(=O)c2cc(NC(=O)CCN3CCOCC3)ccc2O[C@H]1CN(C)C(=O)Nc1ccc(F)cc1 | inactive: 1.02
COc1ccc(S(=O)(=O)Nc2ccc3c(c2)CC(=O)N([C@H](C)CO)C[C@@H](C)[C@@H](CN(C)S(=O)(=O)c2ccc(C)cc2)O3)cc1 | inactive: 1.02
COc1ccc(S(=O)(=O)N(C)C[C@H]2Oc3ccc(NC(=O)NC(C)C)cc3C(=O)N([C@@H](C)CO)C[C@H]2C)cc1 | inactive: 1.02

SMILES | relative growth
C[C@@H]1CN([C@@H](C)CO)C(=O)c2c(c3ccccc3n2C)-c2ccccc2CO[C@@H]1CN(C)Cc1cccc2c1OCCCO2 | inactive: 0.998
O=C(/C=C/c1ccccc1)OC[C@H]1O[C@@H](O[C@@H]2CC(C(=O)O)=C[C@@H](O)[C@H]2O)[C@H](O)[C@@H](O)[C@@H]1O | inactive: 1.02
C[C@@H]1CN([C@H](C)CO)C(=O)c2cc(NC(=O)c3ccncc3)ccc2O[C@H]1CN(C)Cc1ccc(Oc2ccccc2)cc1 | inactive: 1.03
Cc1cc(=O)n(-c2ccccc2)n1C | inactive: 1.02
C[C@@H]1CN([C@H](C)CO)C(=O)c2cc(NS(=O)(=O)c3ccc(F)cc3)ccc2O[C@@H](C)CCCCO[C@@H]1CN(C)S(=O)(=O)c1cn(C)cn1 | inactive: 1.01
C[C@@H]1CN([C@H](C)CO)C(=O)c2cc(NS(=O)(=O)c3ccccc3)ccc2O[C@H]1CN(C)CC1CC1 | inactive: 0.98
CCOc1oc(C(=O)NC2CCCCC2)c(-c2ccc(Cl)cc2)c1S(=O)(=O)c1ccc(Cl)cc1 | inactive: 1.03
C[C@@H]1CN([C@H](C)CO)C(=O)c2cc(NS(=O)(=O)c3ccc(F)cc3)ccc2O[C@@H](C)CCCCO[C@H]1CN(C)Cc1ccc2c(c1)OCO2 | inactive: 1.01
O=S(=O)(NCC[C@H]1CC[C@@H](NS(=O)(=O)c2ccccc2Cl)[C@H](CO)O1)c1ccc(F)cc1 | inactive: 0.964
CC(=O)N1[C@@H](CO)[C@@H](c2ccccc2)[C@@H]1CNC(=O)CN1CCOCC1 | inactive: 0.952
CN(C)C(=N)NCCC[C@H](N)C(=O)O | inactive: 0.995
O=S1(=O)CC[C@H](S(=O)(=O)N2CCOCC2)C1 | inactive: 1.01
COc1ccccc1CNC(=O)C[C@@H]1C[C@H]2c3cc(NC(=O)c4ccc5c(c4)OCO5)ccc3O[C@H]2[C@@H](CO)O1 | inactive: 1.02
COc1ccc(C#Cc2ccc3c(c2)[C@]2(C(=O)N3)[C@H](C(=O)N3CCN(c4ncccn4)CC3)[C@H]3C(=O)O[C@H](c4ccccc4)[C@H](c4ccccc4)N3[C@@H]2c2ccc(O)cc2)cc1 | inactive: 1.03
COc1ccc(CN(C)C[C@@H]2Oc3ccc(NC(=O)Nc4cccc5ccccc45)cc3C(=O)N([C@@H](C)CO)C[C@H]2C)cc1 | inactive: 1.01
C[C@@H]1CN([C@@H](C)CO)C(=O)c2cccc(NC(=O)Nc3cccc4ccccc34)c2O[C@H]1CN(C)S(=O)(=O)c1ccccc1 | inactive: 1.01
O=C(C[C@@H]1C[C@@H]2c3cc(NS(=O)(=O)c4ccc(F)cc4)ccc3O[C@@H]2[C@H](CO)O1)NCc1ccncc1 | inactive: 1.01
C[C@@H]1CCCCO[C@@H](CN(C)Cc2ccccc2)[C@H](C)CN([C@@H](C)CO)C(=O)c2cc(NC(=O)Nc3ccc(F)cc3)ccc2O1 | inactive: 0.974
COc1ccc(CNC(=O)C[C@H]2C[C@H]3c4cc(NC(=O)NC5CCCC5)ccc4O[C@H]3[C@@H](CO)O2)cc1 | inactive: 0.999
C[C@@H]1CN([C@H](C)CO)C(=O)c2cc(NS(=O)(=O)c3ccc(F)cc3)ccc2O[C@H]1CN(C)S(=O)(=O)c1cn(C)cn1 | inactive: 1.04

SMILES | relative growth
COCC#Cc1ccc2c(c1)O[C@H](CN(C)C(=O)Nc1ccccc1F)[C@H](C)CN([C@H](C)CO)S2(=O)=O | inactive: 1.01
C[C@H](CO)N1C[C@H](C)[C@@H](CN(C)Cc2ccc3c(c2)OCO3)Oc2ccc(NS(=O)(=O)c3ccccc3)cc2CC1=O | inactive: 0.992
C[C@H]1CN([C@@H](C)CO)C(=O)Cc2cc(NC(=O)CCN3CCOCC3)ccc2O[C@@H]1CN(C)Cc1ccc(C(=O)O)cc1 | inactive: 1.05
CC(C)OC(=O)OCOP(=O)(CO[C@H](C)Cn1cnc2c(N)ncnc21)OCOC(=O)OC(C)C | inactive: 0.993
CC(C)CC#Cc1ccc2c(c1)O[C@@H](CN(C)C(=O)Cc1ccncc1)[C@@H](C)CN([C@@H](C)CO)S2(=O)=O | inactive: 0.919
Cc1noc(C)c1NC(=O)Nc1ccc2c(c1)CC(=O)N([C@@H](C)CO)C[C@@H](C)[C@@H](CN(C)Cc1ccc(-c3ccccc3)cc1)O2 | inactive: 0.995
C[C@@H]1CCCCO[C@H](CN(C)Cc2ccc(Cl)c(Cl)c2)[C@@H](C)CN([C@@H](C)CO)C(=O)c2cc(NC(=O)C3CCCCC3)ccc2O1 | inactive: 1.02
C[C@@H]1CN([C@H](C)CO)C(=O)Cc2cc(NS(=O)(=O)c3cccs3)ccc2O[C@H]1CN(C)S(=O)(=O)c1cn(C)cn1 | inactive: 0.994
C[C@@H]1CN([C@@H](C)CO)C(=O)c2cc(NS(=O)(=O)c3cn(C)cn3)ccc2O[C@H]1CN(C)C(=O)Nc1ccc(F)cc1 | inactive: 1.01
CC(C)NC(=O)N(C)C[C@@H]1OCc2cnnn2CCCC(=O)N([C@@H](C)CO)C[C@@H]1C | inactive: 1.02
C[C@@H]1CCCCO[C@@H](CN(C)C(=O)Nc2ccc3c(c2)OCO3)[C@@H](C)CN([C@H](C)CO)C(=O)c2cc(NC(=O)NC3CCCCC3)ccc2O1 | inactive: 1.01
O=C(C[C@H]1C=C[C@@H](NC(=O)C2CCC2)[C@@H](CO)O1)NCCCN1CCOCC1 | inactive: 0.964
CC[N+](CC)(CC)CCOc1cccc(OCC[N+](CC)(CC)CC)c1OCC[N+](CC)(CC)CC | inactive: 0.912
Cc1ccc(NC(=O)Cc2coc3ccc(C(C)C)cc23)cc1 | inactive: 1.01
COc1ccc(S(=O)(=O)Nc2ccc3c(c2)C(=O)N([C@@H](C)CO)C[C@@H](C)[C@@H](CN(C)C(=O)Nc2ccc(F)cc2)OCCCC[C@@H](C)O3)cc1 | inactive: 1.01
C[C@@H]1CCCCO[C@H](CN(C)C(=O)Nc2cccc3ccccc23)[C@@H](C)CN([C@H](C)CO)C(=O)c2cc(NS(C)(=O)=O)ccc2O1 | inactive: 1
C[C@H](CO)N1C[C@H](C)[C@H](CN(C)C)OCCCC[C@H](C)Oc2ccc(NC(=O)Nc3ccc(C(F)(F)F)cc3)cc2C1=O | inactive: 0.966
CC1CCc2c(N3CCC(O)CC3)c(F)cc3c(=O)c(C(=O)O)cn1c23 (centres undefined) | active: 0.0484
CC(C)N1C[C@H](C)[C@@H](CN(C)Cc2ccc(Cl)cc2)Oc2c(NC(=O)c3ccncc3)cccc2C1=O | inactive: 1.03

From the supplement of paper PMC9446081
